# Experimental data as given in publication PMC12040169 (PLOS Biology, 2025).
# The list shows a part of the results.
# System: T1, C. trachomatis L2/434/Bu expressing GFP (CTL2-GFP)
# T1 construct: L2/434/Bu GFP intracellular growth in HeLa cells
# Design: species or system HeLa; C. trachomatis total inclusion area by high-content imaging, normalised to DMSO
# Conditions: total inclusion area; 28.5 h, 10 µM; inhibitor
# Outline: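 Host cell viability was gauged from Hoechst-stained nuclei counts, while chlamydial growth was taken from total inclusion area and inclusion number per well. Cells were fixed and imaged by high-content microscopy once bulk GFP and resorufin fluorescence had been measured.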
row,SMILES,% of control remaining
1,CN(C)S(=O)(=O)NNC(=O)c1c[nH]c2ccccc12 [CBK267698],84.6964
2,O=S(=O)(NCCCn1ccnc1)c1cccs1 [CBK269912],98.0019
3,CCc1cc2cc3c(cc2nc1SCC(=O)Nc1cccc(C(C)=O)c1)OCO3 [CBK108551],107.527
4,CCC(Oc1cc(C)ccc1Cl)C(=O)Nc1sccc1C(N)=O (centres unmarked) [CBK268152],102.528
5,O=C(c1ccc(F)cc1)N1C[C@@H](c2ccsc2)[C@@H]2CN(Cc3ccccc3)CC[C@@H]21 [CBK285635],86.0128
6,Cc1csc(C(Cc2ccsc2)NCC2=CCCOC2)n1 (centres unmarked) [CBK282439],109.106
7,CN(C)CCCC(=O)NCc1ccc(-c2csnn2)cc1 [CBK149288],111.618
8,O=C(Nc1ccc(CCO)cc1)c1cnc(-c2ccc(Cl)cc2)c(-c2ccco2)c1 [CBK037457],98.2399
9,CCN(CC)C(=O)Cn1nc(C)n2c(cc3sc(C)cc32)c1=O [CBK284064],104.974
10,Cc1c(O)cccc1Nc1cc(-c2cccc(N(C)C)c2)ncn1 [CBK036995],105.682
11,COc1cc(C2C3=C(CC(C)(C)CC3=O)OC3=C2C(=O)CC(C)(C)C3)ccc1OCC(=O)O [CBK262379],91.0401
12,Cc1ccc(C(C)(C)C)c(OC(=O)c2cnc(C)cn2)c1 [CBK090261],113.87
13,CCCCOc1nccnc1-c1ccc(C)c(C)c1 [CBK106870],95.2194
14,CC(C)[C@H](CO)Nc1nccnc1-c1ccccc1CO [CBK037408],84.702
15,O=C(Nc1ccc2[nH]c(=O)[nH]c2c1)c1ccc2[nH]ccc2c1 [CBK149083],88.8573
16,CNC(=O)C1/C(=N\O)c2ccccc2N1C(C)=O (centres unmarked) [CBK006569],105.957
17,Cc1nc(NCCc2cnc(=O)n(C)c2O)cc(C2CCOC2)n1 (centres unmarked) [CBK307559],74.5607
18,CCN(CC)CC(C)C(O)(c1ccc(Cl)cc1)c1ccc(Cl)cc1 (centres unmarked) [CBK012146C],70.4295
19,Cc1ccc(NC(=O)c2cc(C)[nH]n2)c(C)n1 [CBK200387],102.51
20,O=C(Nc1nc2ccccc2s1)c1cnccn1 [CBK058664],57.8917
21,CC(C)(C)C1CCc2c(sc(NC(=S)NC(=O)COc3ccccc3)c2C(N)=O)C1 (centres unmarked) [CBK268634],135.704
22,CC(C)[C@@H](CO)Nc1nc(-c2ccc(S(C)(=O)=O)cc2)cnc1N [CBK063750],128.6
23,Cc1ccccc1OCc1nnc(SCC(N)=O)n1-c1ccccc1 [CBK268808],102.685
24,O=c1oc(-c2cccnc2)nn1Cc1ccccc1F [CBK283774],73.0907
25,O=C(c1csnn1)N1CCc2ccccc21 [CBK200408],100.598
26,CC(C)(C)OC(=O)N[C@@H](Cc1ccccc1)C(=O)NC[C@H]1CC[C@H](C(=O)O)CC1 [CBK286719],55.5045
27,NS(=O)(=O)c1ccc(C(=O)NCCc2c[nH]c3ccc(Cl)cc23)cc1 [CBK159780],111.52

row,SMILES,% of control remaining
1,COC(=O)c1ccccc1NC(=O)CCSc1ccc(C)cc1 [CBK265958],77.7812
2,CC(C)Cc1ccc(-c2cc(Nc3ccc(O)cc3)ncn2)cc1 [CBK090754],116.646
3,c1ccc2c3c([nH]c2c1)C12CCN(CC1)C(C1CCOC1)N2CC3 (centres unmarked) [CBK284433],88.5774
4,c1c2c(cc3sc(N4CCOCC4)nc13)OCO2 [CBK287494],84.9307
5,COc1ccc(C)cc1S(=O)(=O)Nc1cc(N2CCN(C(C)C)CC2)c2occc2c1 [CBK073625C],93.6572
6,O=C(c1nc[nH]n1)N1CCN(c2nccc(CCC(F)(F)F)n2)CC1 [CBK307306],41.9697
7,CCn1cc([C@H]2CN(C)C[C@@H]2N(C)C)c2ccccc21 [CBK285468],80.7999
8,O=C(c1cccc(F)c1)N1C2CCC1CC(O)(c1cccnc1F)C2 (centres unmarked) [CBK284422],67.5434
9,COc1ccc(CCNC(=O)C2CCN(S(=O)(=O)c3ccccc3)CC2)cc1 [CBK264985],92.3083
10,COc1ccccc1Cn1nc2nnc(-c3ccccc3)c(-c3ccccc3)n2c1=O [CBK286185],97.3983
11,CS(=O)(=O)Nc1nc2ccc(S(C)(=O)=O)cc2s1 [CBK092166],54.3931
12,CNC(=O)C1CCN(Cc2ccc(-c3nnn(CC(=O)NCc4ccc(C)cc4)n3)cc2)CC1 [CBK153195T],82.2658
13,CC(=O)N1C[C@@H](c2cccc(C)c2)[C@@H]2CN(CC3CC3)CC[C@@H]21 [CBK283372],107.421
14,NC(=O)C1(Cc2ccc(-c3ccccc3)cc2)CCN(C(=O)COc2ccccc2)CC1 [CBK285773],97.3165
15,Cc1nn(C)c(N2CCNCC2)c1NC(=O)CN(C)C(=O)c1ccccc1 [CBK050255T],59.83
16,Cc1cccc2cc(CN(Cc3ccco3)C(=O)C3CCCCC3)c(O)nc12 [CBK269178],69.3643
17,COC(=O)[C@@H](C)NC(=O)[C@@H]1CN(C(=O)c2cccc(F)c2)CCN1C(=O)C1CCCCC1 [CBK289621],102.358
18,O=C(O)C1CCN(C(=O)NCc2ccc(F)cc2)CC1 [CBK156070],101.619
19,N#Cc1nccnc1N1CCN(Cc2ccc3c(c2)OCO3)CC1 [CBK011284],82.6081
20,O=C(NC1CCCCC1)NS(=O)(=O)c1ccc(CCNC(=O)c2cccs2)cc1 [CBK011888],33.581
21,CN(C)S(=O)(=O)c1ccc(C(=O)C2=C(O)C(=O)N(CCN3CCCCC3)C2c2cccnc2)cc1 (centres unmarked) [CBK264700],102.711
22,CC(C)NC(=O)N1Cc2nc[nH]c2C[C@H]1c1nc(-c2ccc3c(c2)OCO3)no1 [CBK289001],107.49
23,CCn1cc(C(=O)O)c(=O)c2cnc(N3CCN(C(=S)NC(=O)c4cccs4)CC3)nc21 [CBK265753],90.0728
24,O=C(CN1Cc2ccccc2C1)N1CCCC1c1nc2ccccc2[nH]1 (centres unmarked) [CBK283710],100.282
25,COc1cc(C)c(-c2nc(C)nc(C)c2C)c(C)c1 [CBK306711],56.202
26,O=C(Cn1ncc2cccn2c1=O)c1ccc(F)cc1 [CBK283627],62.1286
27,O=C(NCCN1CCOCC1)c1sc2cc(F)ccc2c1Cl [CBK018212],70.0416

row,SMILES,% of control remaining
1,Cc1cc(C(=O)N2CCC(Cc3ccccc3-c3ccccc3)(C(=O)N(C)C)CC2)cs1 [CBK285676],97.8905
2,CC1(C(=O)N2CCc3onc(-c4ccccc4F)c3C2)CCCO1 (centres unmarked) [CBK282660],105.898
3,O=C(CN1C(=O)N2CCCN=C2c2ccccc21)NCc1ccccc1 [CBK284403],79.0156
4,O=C(CN1C(=O)CCC1=O)Nc1nc2ccccc2s1 [CBK287345],72.3816
5,Cc1ccc(NC(=O)C(=O)NCCCN2CCOCC2)cc1Cl [CBK264806],109.644
6,O=C1N=C(NC2CCCCC2)SC1Cc1nc2ccccc2o1 (centres unmarked) [CBK067970],98.7496
7,O=C(c1ccc2nc[nH]c2c1)N1Cc2ccccc2C1 [CBK200322],102.341
8,CCOc1ccc(S(=O)(=O)Nc2ccc(C(=O)O)cc2)cc1 [CBK287171],100.105
9,CCn1cc(CN(CCN(C)C)Cc2cccs2)c(C)n1 [CBK283037],85.0889
10,CC(C)C(=O)N1CCCC1c1cc2n(n1)[C@@H](C(F)(F)F)C[C@@H](C)N2 (some centres unmarked) [CBK282966],81.2509
11,Cc1cc2ncc3c(n2n1)CC1CCC3N1C(=O)c1cccs1 (centres unmarked) [CBK284415],104.277
12,O=C(c1cccc(F)c1)N1CCN(Cc2ccccn2)CC1 [CBK263023],85.9351
13,CC1=NN(c2nc(-c3cccc([N+](=O)[O-])c3)cs2)C(=O)C1/N=N/c1ccc(C)c(Br)c1 (centres unmarked) [CBK262430],117.472
14,CC(C)(C)OC(=O)Nc1ccc2c(ccn2CCN2CCOCC2)c1 [CBK161767],64.6492
15,O=C(O)CCSc1nc(-c2ccccc2)cc(=O)[nH]1 [CBK287076],109.604
16,Cc1cnc(CNC(=O)N2CCN(CCN3CCOCC3)CC2)cn1 [CBK155673],82.4441
17,O=C1CCC(=O)N1CCOc1nccnc1OC1CCN(CCOc2ccccc2)CC1 [CBK084354],99.946
18,c1ccc(CCNc2cc(-c3ccsc3)ncn2)nc1 [CBK036963],150.177
19,CC(C)[C@H]1CN(Cc2ccco2)CCN1C(=O)c1cscn1 [CBK285490],103.158
20,CC(C)SCC(=O)Nc1ccc(Br)cc1 [CBK057618],46.623
21,O=C(N[C@H]1CCN2C(=O)c3cc(-c4cccs4)ccc3NC(=O)[C@H]12)c1cnccn1 [CBK289337],81.6826
22,O=C(Nc1nnc(-c2ccc3c(c2)OCCO3)o1)c1cccc(F)c1 [CBK287402],122.661
23,N#CC1CCC(CNC(=O)c2sc3ccccc3c2Cl)CC1 (centres unmarked) [CBK010864],102.217
24,Cc1nonc1-c1csc(CC(C)n2cc(Cl)cn2)n1 (centres unmarked) [CBK304704],49.6083
25,O=C(/C=C/c1ccc2c(c1)OCO2)NCCSc1ccccn1 [CBK264012],96.9337
26,Cc1nc(C2CCN(C(=O)CC3CCCC3)CC2)ncc1C(=O)Nc1ccc(Cl)cc1 [CBK285847],91.6418
